In publication PMC4336329 (PLoS ONE, 2015):
Screen size: about 310,000 compounds; about 14,000 (4.5%) showed an effect of 50% or more. Effects have a minus sign here. Some of the results follow.

The molecules below were run against human ether-à-go-go-related gene (hERG) potassium channel (human, UniProt Q12809) (assay: primary screen, population patch clamp on CHO cells stably expressing hERG).
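Note: peak tail current of the secondary pulse compared with the same well before compound.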

human ether-à-go-go-related gene (hERG) potassium channel, sequence (Q12809 whole entry, looked up): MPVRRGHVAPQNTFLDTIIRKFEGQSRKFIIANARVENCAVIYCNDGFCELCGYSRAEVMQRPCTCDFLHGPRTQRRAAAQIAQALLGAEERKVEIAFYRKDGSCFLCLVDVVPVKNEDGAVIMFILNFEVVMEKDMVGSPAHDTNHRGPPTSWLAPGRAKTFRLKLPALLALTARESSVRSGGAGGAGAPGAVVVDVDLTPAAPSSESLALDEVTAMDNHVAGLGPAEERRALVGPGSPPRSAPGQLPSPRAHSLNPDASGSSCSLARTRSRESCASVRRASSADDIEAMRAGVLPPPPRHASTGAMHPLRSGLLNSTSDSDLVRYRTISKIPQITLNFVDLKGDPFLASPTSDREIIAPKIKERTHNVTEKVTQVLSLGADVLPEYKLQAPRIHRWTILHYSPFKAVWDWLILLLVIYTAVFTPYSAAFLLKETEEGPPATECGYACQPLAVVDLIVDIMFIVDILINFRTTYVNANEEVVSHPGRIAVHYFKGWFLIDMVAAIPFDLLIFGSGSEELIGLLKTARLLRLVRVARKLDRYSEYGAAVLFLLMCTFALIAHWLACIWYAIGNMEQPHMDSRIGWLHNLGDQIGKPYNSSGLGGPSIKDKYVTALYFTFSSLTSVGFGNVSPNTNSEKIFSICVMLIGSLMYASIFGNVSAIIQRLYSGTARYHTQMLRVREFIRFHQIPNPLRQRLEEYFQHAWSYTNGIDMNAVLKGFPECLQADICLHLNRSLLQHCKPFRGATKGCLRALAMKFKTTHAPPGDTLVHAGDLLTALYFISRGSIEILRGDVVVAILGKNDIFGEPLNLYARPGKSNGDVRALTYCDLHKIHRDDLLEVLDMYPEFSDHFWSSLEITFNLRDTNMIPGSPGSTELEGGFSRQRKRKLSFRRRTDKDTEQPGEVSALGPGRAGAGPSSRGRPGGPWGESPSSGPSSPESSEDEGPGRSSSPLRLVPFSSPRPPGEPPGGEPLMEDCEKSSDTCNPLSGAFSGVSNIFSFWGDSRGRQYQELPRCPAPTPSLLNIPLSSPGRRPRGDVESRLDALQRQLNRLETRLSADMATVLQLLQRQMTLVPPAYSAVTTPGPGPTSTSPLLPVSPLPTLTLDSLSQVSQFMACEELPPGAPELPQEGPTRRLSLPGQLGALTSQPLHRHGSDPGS

Structure (SMILES)	hERG current change (%, negative = inhibition) at 10uM [%]
Nc1scn[n+]1Cc1cccc2cccnc12.[Br-]	-11.1
Cc1ccc(/C(COc2ccccc2O)=N\O)cc1	-4.13
CCN(CC)C(=O)c1[nH]cnc1C(=O)Nc1ccon1	0.396
COc1ccc(C(=O)C(C)N(C(=O)c2ccc(Cl)cc2Cl)N2C(=O)C3C4C=CC(C4)C3C2=O)cc1 (stereo not drawn)	0.401
CCOC(=O)c1cncc(O)c1	9.08
CC(C)(C)C1CCC(=NNC(=S)NCc2ccccc2)CC1 (stereo not drawn)	7.64
COc1cccc(NC(=O)c2ccc3c(c2)CCCC3)c1	-2.55
Clc1nc(NC2CCCC2)nc(N2CCOCC2)n1	9.9
Cn1c(=O)c2c(nc(Oc3cccc(O)c3)n2C)n(C)c1=O	24.2
CCCNC(=O)CSc1nccn1Cc1ccc(OC)cc1	15.3
COc1ccccc1CNC(=O)[C@@H]1CCCN1C(=O)[C@@H]1Cc2ccccc2CN1C(=O)OC(C)(C)C	2.41
C[C@@]12CCC=C[C@H]1[C@H](c1ccc(/C=C/c3ccccc3)cc1F)N(Cc1ccccc1)C2=O	23.9
O=[N+]([O-])c1ccc(N2CCN(S(=O)(=O)c3ccc4ccccc4c3)CC2)cc1NCc1ccco1	14.7
CC1CCCCN1S(=O)(=O)c1ccc(S(=O)(=O)N(CC(=O)Nc2ccccc2)Cc2cccs2)cc1 (stereo not drawn)	28.6
COc1ccc(CN2CCNC(=O)C2CC(=O)NCc2cn3ccc(C)cc3n2)c(OC)c1 (stereo not drawn)	-8.13
Cc1cc(C)n(S(=O)(=O)c2cc(C(=O)O)c(Cl)cc2Cl)n1	3.12
N#Cc1ccc(-c2ccc(OCC(O)CN3CCOCC3)cc2)cc1 (stereo not drawn)	-18.4
COCCCN=Cc1c(C)[nH]n(-c2ccc(Br)c(C)c2)c1=O	-9.32
Cc1ccccc1N(CC(=O)NCc1ccco1)C(=O)CCC(=O)Nc1nccs1	-9.81
CCOC(=O)C1(CCCc2ccccc2)CCN(C(=O)CCn2cnnn2)CC1	-56.6
O=C(c1cc(-c2cccnc2)nc2ccc(Cl)cc12)N1CCC2(CC1)OCCO2	-14.2
CC(C)c1nnc(NC(=O)CCC(=O)Nc2ccc(F)cc2)s1	18.7
CS(=O)(=O)c1ccc2nc(NC(=O)c3ccccc3)sc2c1	10.8
CCc1ccc(N(CC(=O)NC2CCCCC2)C(=O)CNC(=O)c2ccco2)cc1	-13.6
